Measured values: US20220047729A1 (published 2022)

T1: recombinant hPD-L2 hIgG1 Fc-fusion protein (R&D Systems) (human, UniProt Q9BQ51 20-219)
T1 chain: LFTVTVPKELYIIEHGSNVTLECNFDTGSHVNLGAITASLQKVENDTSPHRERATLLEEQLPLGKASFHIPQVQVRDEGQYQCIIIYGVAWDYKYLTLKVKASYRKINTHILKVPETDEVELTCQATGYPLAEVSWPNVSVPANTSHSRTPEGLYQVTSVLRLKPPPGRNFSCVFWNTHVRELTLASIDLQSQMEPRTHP


Experiments:
[1] = molecular target: recombinant hPD-L1 hIgG1 Fc-fusion protein (R&D Systems) (human, UniProt Q9NZQ7 fragment); test: FACS binding titration on HEK 293 cells
Chain of UniProt Q9NZQ7 (Q9NZQ7 19-239): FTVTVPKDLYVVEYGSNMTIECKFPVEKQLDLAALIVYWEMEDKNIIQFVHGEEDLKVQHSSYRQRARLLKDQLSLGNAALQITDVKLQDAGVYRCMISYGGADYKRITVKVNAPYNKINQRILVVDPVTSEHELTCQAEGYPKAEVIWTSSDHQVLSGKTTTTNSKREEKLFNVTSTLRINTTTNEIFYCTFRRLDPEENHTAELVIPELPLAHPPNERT

[2] = molecular target: T1, recombinant hPD-L2 hIgG1 Fc-fusion …; test: FACS binding titration on HEK 293 cells

Row | Binder | EC50 [1] [pM] | EC50 [2] [pM]
1 | human PD-1 mutant T76D (hPD-1 Type I mCherry, on HEK 293 cells) (receptor) not shown | ~210 | ~1050
2 | human PD-1 mutant T76E (hPD-1 Type I mCherry, on HEK 293 cells) (receptor) not shown | ~310 | ~780

The remaining binders from weak to strong by EC50 [1], led by results:

Row | EC50 [1] [pM] | EC50 [2] [pM] | Binder
3 | ~130 | ~960 | human PD-1 mutant Y68N (hPD-1 Type I mCherry, on HEK 293 cells) (receptor) not shown
4 | ~30 | ~20 | wild-type human PD-1 ectodomain (Leu 25-Thr 168) displayed on HEK 293 cells (hPD-1 Type I mCherry) (receptor) not shown
